Data published in the RNAGym collection of RNA variant scans (doi:10.1093/nar/gkz1192).
Read counts are not given, so values of variants with three or more changes are uncertain.

B1: CPEB3 Ribozyme (parent)
chain: UAACAGGGGGCCACAGCAGAAGCGUUCACGUCGCAGCCCCUGUCAGAUUCUGGUGAAUCUGCGAAUUCUGCUGUAUAUCUC

Variants of: B1
Test: self-cleavage, relative activity (ratio to wild type); higher = more cleavage; in vitro, sequencing
In short: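 Libraries of CPEB3 self-cleaving ribozyme mutants came from rounds of error-prone PCR and carried barcodes, which DNA sequencing matched to variants. In vitro transcription used T7 RNA polymerase at 37°C for 5 hours, with a further 15 min in DNase I before EDTA stopped the reaction; the ribozymes cleaved during both steps. The RNA was reverse transcribed with template switching and sequenced on Illumina. Relative activity is the cleaved/total read fraction of a variant divided by that of the unmutated ribozyme, averaged over three batches with at least 5 reads.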
A3G G16C A75U gave a self-cleavage of 0.12. In the case of A3G G10A C40G U54C, the self-cleavage is reported as 0.31. Work on A3G G19U U49C G55A U78C yielded a self-cleavage of 0.24. Work on A3G G24A U51A A57G U60A C62U yielded a self-cleavage of 0.05. Variant A3G C23U U58A has a self-cleavage of 0.12. For A3G G36U C44U U54C U60C, the self-cleavage was 0.09. Variant A3G G36U U51C U54C has a self-cleavage of 0.28. A3G G10A C12U U26C U41A U67G U72A gave a self-cleavage of 0.06. In the case of A3G G7A A15G C23U U25C A28G U60C, the self-cleavage is reported as 0.27. Work on A3G C12U U25C U49C A65U yielded a self-cleavage of 0.05. A3G G16A C34G showed a self-cleavage of 0.1. Variant A3G G19A A21G U26A U54C A75G has a self-cleavage of 0.14. A3G C12U U26C A35U C37U gave a self-cleavage of 0.11. A3G G9C A13G A57G U80C gave a self-cleavage of 0.14. With A3G C39U U41C A57U the self-cleavage was 0.33. In the case of A3G G36U A45G U66C, the self-cleavage is reported as 0.14. With A3G C12G U54C A56G U78C the self-cleavage was 0.43. A3G C12U C17U A64G U72A gave a self-cleavage of 0.13. For A3G C29U U31A U78C, the self-cleavage was 0.43. Work on A3G C23A A35G U58C U78A yielded a self-cleavage of 0.06. Work on A3G C12U U31A U41A A45U C71A yielded a self-cleavage of 0.05. With A3G C12U G19C the self-cleavage was 0.47. In the case of A3G G10C A18U A20G U43G A47G, the self-cleavage is reported as 0.05. A3G C17A A21G C62U showed a self-cleavage of 0.31. With A3G C39A A57G U72C the self-cleavage was 0.18. A3G C11G U26C showed a self-cleavage of 0.45. For A3G G7A U54A, the self-cleavage was 0.6. Work on A3G G30U U31C yielded a self-cleavage of 0.47. A3G G7A U26C U41A U72A gave a self-cleavage of 0.41. With A3G G8C U26A G53C U74A U80C the self-cleavage was 0.57. Variant A3G C23A A47G A75G U78C has a self-cleavage of 0.12. For A3G C11U U43C A57G, the self-cleavage was 0.25. A3G C37A U41A U51A U72C showed a self-cleavage of 0.07. A3G G36A U54C A56U G63A showed a self-cleavage of 0.18. A3G G8A A18G A64G A75G U80G gave a self-cleavage of 0.07. For A3G G9A A45G U49A A56G U60A U78C, the self-cleavage was 0.06. Work on A3G G10A U26C U67C U72A U76A yielded a self-cleavage of 0.02. With A3G G9A U76A the self-cleavage was 0.43. A3G G9A A28G U31A U54C U80C gave a self-cleavage of 0.1. In the case of A3G G16A U31A U58C U66G A75G, the self-cleavage is reported as 0.05. Variant A3G G10A U43C U60C U66C has a self-cleavage of 0.18. A3G G36A U54C C68A showed a self-cleavage of 0.17. In the case of A3G G6U A15U G53U U58C U69C, the self-cleavage is reported as 0.11. With A3G G22A A64U the self-cleavage was 0.11. A3G C12U A20G C32A C40U C44G U60C gave a self-cleavage of 0.06. Work on A3G G9A A64G U72A yielded a self-cleavage of 0.1. For A3G C37U U67C U78A, the self-cleavage was 0.56. With A3G G7A A28G A45U U60A G63A U76C the self-cleavage was 0.07. With A3G C12U U25C U41A G70A the self-cleavage was 0.09. A3G G6A A21C A35G U74A showed a self-cleavage of 0.05. With A3G G16U C62G A75U the self-cleavage was 0.28. Variant A3G C38A A57G U78C U80C has a self-cleavage of 0.26. With A3G C32G U54C C59A the self-cleavage was 0.16. A3G G7C U74C gave a self-cleavage of 0.75. Work on A3G G8A A13G U31A C40U yielded a self-cleavage of 0.13. With A3G C23G U25C U41C A47G the self-cleavage was 0.48. Work on A3G G42A U43C C44U yielded a self-cleavage of 0.62. In the case of A3G G7U A45C A64G, the self-cleavage is reported as 0.09. In the case of A3G G9A U26G A35U A65G, the self-cleavage is reported as 0.51. A3G G7C U48C U51A U66C gave a self-cleavage of 0.05. For A3G C12A U26C U31C A57G U72C, the self-cleavage was 0.35. In the case of A3G C39A U41G U60C, the self-cleavage is reported as 0.08. For A3G G24A U26A G63A U78C, the self-cleavage was 0.1. Variant A3G G8A G10U has a self-cleavage of 0.1. For A3G G19C G24A, the self-cleavage was 0.42. In the case of A3G G33U U41C A57G, the self-cleavage is reported as 0.74. In the case of A3G G22U U43A U76A, the self-cleavage is reported as 0.27. Variant A3G G42A U60C U80C has a self-cleavage of 0.13. With A3G G24A U66C U67C the self-cleavage was 0.13. Variant A3G G7A U43A A45G U67C U80C has a self-cleavage of 0.12. A3G C17U U51C U54A gave a self-cleavage of 0.76. With A3G C17A U41A G42U U76C the self-cleavage was 0.11. A3G G8C G24A A64G U80C gave a self-cleavage of 0.11. A3G C17U A65G U72C showed a self-cleavage of 0.28. With A3G G16C C40U the self-cleavage was 0.53. With A3G C14A C62G the self-cleavage was 0.24. Variant A3G C29U U31A U48C U66C has a self-cleavage of 0.29. A3G G6A G33A C37A U72C showed a self-cleavage of 0.04. A3G G19A A35U U48C U51C U54C A64G showed a self-cleavage of 0.27. With A3G C34U G55A the self-cleavage was 0.28. A3G G10A A56U U60A gave a self-cleavage of 0.18. For A3G C23U U25C U43A A47G U74A, the self-cleavage was 0.73. A3G G19A A28G U48C showed a self-cleavage of 0.3. Work on A3G G24A U26A C27U U60C yielded a self-cleavage of 0.13. A3G G6U A13U U60C gave a self-cleavage of 0.26. Variant A3G G6C A15G U41A A75U U80C has a self-cleavage of 0.06. Variant A3G G10C U31C A45G G61A A65G has a self-cleavage of 0.13. In the case of A3G G52A U60C, the self-cleavage is reported as 0.34. In the case of A3G C12G A45G U51C, the self-cleavage is reported as 0.19. In the case of A3G C17G U25C A45G C50A U60C U69C, the self-cleavage is reported as 0.38. For A3G C23U C34U U67A A77G, the self-cleavage was 0.17. A3G C38A U49A C50A U69A showed a self-cleavage of 0.16. Work on A3G C12U U48A U74C yielded a self-cleavage of 1.18. Variant A3G G8U G9C A13U A57G has a self-cleavage of 0.08. Variant A3G C17A A18G C62A has a self-cleavage of 0.28. For A3G G33U U54C U66A U69A, the self-cleavage was 0.16. For A3G C27U U41A, the self-cleavage was 0.39. A3G C27U U41A U54C U76C showed a self-cleavage of 0.24. With A3G G16U A28G C32U U43C U67C the self-cleavage was 0. For A3G G10C A20G C39A G42A, the self-cleavage was 0.07. A3G C14U U41G A45G A47U U51A A64G showed a self-cleavage of 0.31. A3G C12G A21G U51C C71G U78C gave a self-cleavage of 0.07. With A3G G16U A28C A57G the self-cleavage was 0.14. With A3G C14U U31C C40G G63A A64U the self-cleavage was 0.06. A3G G16U A18U A65G gave a self-cleavage of 0.07. For A3G G16U A28G U48C A64G, the self-cleavage was 0.03. Variant A3G G24A A35G has a self-cleavage of 0.26. With A3G C12A A15G U31C U51A A75U the self-cleavage was 0.6. In the case of A3G C23U U25C A35G U78C, the self-cleavage is reported as 0.1. In the case of A3G G7C G24C U43C U54C U60G U67C, the self-cleavage is reported as 0.14. With A3G C14U A45G U48C A64U the self-cleavage was 0.15. Variant A3G G19U A64U has a self-cleavage of 0.31. For A3G C34G A65G, the self-cleavage was 0.32. A3G G6A C12U U60A U76C gave a self-cleavage of 0.04. A3G C11G U26A G30A gave a self-cleavage of 0.08. Variant A3G C11U C40U U43C has a self-cleavage of 0.06. In the case of A3G C14A A18U A20U U26C U43C U80C, the self-cleavage is reported as 0.05. With A3G G9A C14U U26C A35G U76C the self-cleavage was 0.39. A3G C12U A21G U43A U49C U72A gave a self-cleavage of 0.19. In the case of A3G C11U U49C, the self-cleavage is reported as 0.09. For A3G G46U A65G, the self-cleavage was 0.32. In the case of A3G C29U A35G A45U, the self-cleavage is reported as 0.56. A3G C23A A28G A56G U67C C79U gave a self-cleavage of 0.15. With A3G C23G U41C the self-cleavage was 0.15. A3G C12A A20G U76C gave a self-cleavage of 1.03. Variant A3G G9A A20G A45G has a self-cleavage of 0.42. For A3G C39G U51A U67C, the self-cleavage was 0.08. A3G G7A U25C A45G showed a self-cleavage of 0.07. A3G G16U A18G G24A G30A U41A U60C gave a self-cleavage of 0.08. Variant A3G G10A A35G U72C has a self-cleavage of 1.07. For A3G C27A A57G U60C, the self-cleavage was 0.06. With A3G G10C C27U A64U U66C the self-cleavage was 0.35. For A3G C34A U60A U67C, the self-cleavage was 0.16. Work on A3G C32A C38G U67A yielded a self-cleavage of 0.29. In the case of A3G C12A G30A U41C U49C U78C, the self-cleavage is reported as 0.06. In the case of A3G G9C U54C U60A A64U, the self-cleavage is reported as 0.28. Variant A3G C14U A56U U60A has a self-cleavage of 0.26. In the case of A3G G19U A75U, the self-cleavage is reported as 0.66. In the case of A3G C39U A45G, the self-cleavage is reported as 0.56. Variant A3G G7A A15U U26C U51A A56G U67A has a self-cleavage of 0.06. In the case of A3G G8A U43C U80C, the self-cleavage is reported as 0.46. A3G C12A A15C U43A U49C A56U G63A showed a self-cleavage of 0.19. A3G G16A G19U showed a self-cleavage of 0.29. Variant A3G C12G U78G has a self-cleavage of 0.4. A3G C27A U43A A47G A65G U78A gave a self-cleavage of 0.04. Variant A3G G52C A56G U60C has a self-cleavage of 0.43. Variant A3G G24A U69C U72C has a self-cleavage of 0.34. For A3G G8U G53A A57G, the self-cleavage was 0.31. In the case of A3G G10A U54C U80A, the self-cleavage is reported as 0.08. Work on A3G C23G U25C U41A U43C yielded a self-cleavage of 0.47. A3G C12U A15U U54C gave a self-cleavage of 1.22. For A3G C37G C68A U80C, the self-cleavage was 0.1. In the case of A3G C14U A20U U60A, the self-cleavage is reported as 0.12. For A3G G6U U76A U80C, the self-cleavage was 0.19. A3G C23U U41A A57G A64U showed a self-cleavage of 0.12. For A3G C23U U41C A56G U69A, the self-cleavage was 0.22. With A3G G10A U41C U43C U80A the self-cleavage was 0.33. With A3G C14A A56U the self-cleavage was 1.06. Work on A3G G8A A15G yielded a self-cleavage of 0.62. In the case of A3G C40U U51A U76C, the self-cleavage is reported as 0.81. Work on A3G G16C A21G yielded a self-cleavage of 0.51. With A3G C32U C37U U54A A56G U69C the self-cleavage was 0.11. A3G C11G U69C gave a self-cleavage of 0.12. Work on A3G C17G C62A yielded a self-cleavage of 0.28. For A3G C38U A57G U67C, the self-cleavage was 0.06. A3G G22U G61A C79A showed a self-cleavage of 0.33. With A3G G16A G33C U54C the self-cleavage was 0.06.
